Results: PMC12291137, “Designing Catalysts to Accelerate a Protein–Peptide Assembly-Reaction Cascade” (ACS Central Science, 2025)

How the values were obtained:
[1] = molecular target: calmodulin (CaM) (UniProt P0DP23); assay: ITC; CaM (200 μM) titrated into B or P (18 μM); the paper calls K_a(c) an apparent binding constant; conditions: both partners purified
[2] = molecular target: catalyst C (CaM-SrtA), fusion of calmodulin and sortase A; assay: microkinetic model fitted to reaction kinetics (SDS-PAGE densitometry); conditions: both partners purified

B1: substrate B (SpyCatcher-M13-LPETG-SpyTag(DA)), with the original M13 (M13-1) (other)
chain: not shown
- Ka [1]: 480000 M⁻¹
- koff [2]: 0.01 s⁻¹
- kon [2]: 4800 M⁻¹ s⁻¹
